Assay results as given in PubChem BioAssay (NCATS).
The inconclusive results got no clear call from the source; some entries with a clear call stand among them for comparison. Potencies of inconclusive entries are left out as doubtful fits. The source made the active and inactive calls. Calls come from the whole dose curve; as a rule, active = well fitted curve in the direction sought with a large enough effect; inconclusive = small, poorly fitted or top-dose-only effect, or another doubt; inactive = no such curve, though single readings can be large; an effect the other way counts as inactive or inconclusive.

assay: qHTS of pediatric cancer cell lines to identify multiple opportunities for drug repurposing: Primary screen for NB1643 cells (AID 1347099); settings: NB1643 neuroblastoma viability, CellTiter-Glo luminescence, 48 h; series mostly up to 46 µM; activity change, negative = cytotoxic: at the top concentration; note: nearly all actives have a fitted effect of over 50% in size;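 for activity change, negative = cytotoxic: plate controls were DMSO neutral control for no effect and bortezomib positive control for full effect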
How it was run: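 ATP-based luminescence (CellTiter-Glo) quantifies viability after a 48-hour exposure. Compounds are dosed across 8 or 11 final concentrations; DMSO and 2.3 µM bortezomib serve as controls.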
Potency is the fitted concentration of half-maximal effect; tags give direction and shape of the fitted curve.

Row | SMILES | Potency | activity change, negative = cytotoxic
1 | C#CC1(O)CCC2C3CCC4=CC(=O)CCC4(C)C3CCC21C (stereo not given) | active: 23.5 µM | 
2 | O=C(O)C(=O)c1cn(Cc2ccccc2)c2ccc(-c3ccc(OC(F)(F)F)cc3)cc12 | active: 23.5 µM | 
3 | N#Cc1nn(-c2c(Cl)cc(C(F)(F)F)cc2Cl)c(N)c1S(=O)C(F)(F)F (stereo not given) |  | inactive: -13.1%
4 | C[C@]12C=CC(=O)C=C1CC[C@@H]1[C@@H]2CC[C@@]2(C)[C@H]1CC[C@]2(C)O | inconclusive [cytotoxic, partial curve, poor fit] | 
5 | CC(C)CC(N(C)C)C1(c2ccc(Cl)cc2)CCC1 (stereo not given) | inconclusive [cytotoxic, single point] | 
6 | C1=C2CCCN[C@H]2[C@@H]2C[C@H]1[C@@H]1CCCCN1C2 | inconclusive [cytotoxic, full curve] | 
7 | CC(O)=C(C#N)C(=O)Nc1cc(Br)ccc1Br | active: 1.32 µM | 
8 | CCN(CC)C(=O)c1ccc(C2=CC3(CCNCC3)Oc3cccc(O)c32)cc1 | inconclusive [cytotoxic, partial curve] | 
9 | c1ccc(CCCN2CCN(CCOC(c3ccccc3)c3ccccc3)CC2)cc1 | active: 26.4 µM | 
10 | CC(C)=CC1C(C(=O)OCN2C(=O)C3=C(CCCC3)C2=O)C1(C)C (stereo not given) | inconclusive [cytotoxic, partial curve] | 
11 | O=C(O)CNC(=O)c1c(O)c2ccccc2n(Cc2ccccc2)c1=O |  | inactive: -2.89%
12 | COc1ccc(C(=O)c2c(C)n(CCN3CCOCC3)c3ccccc23)cc1 | inconclusive [cytotoxic, partial curve] | 
13 | C[C@]12CCC(=O)C=C1CC[C@@H]1[C@@H]2CC[C@@]2(C)[C@H]1CC[C@]2(C)O |  | inactive: 0%
14 | CCOP(=S)(OCC)Oc1ccc2c(C)c(Cl)c(=O)oc2c1 |  | inactive: 16.8%
15 | CC[n+]1c(-c2ccccc2)c2cc(N)ccc2c2ccc(N)cc21 | active: 11.9 µM | 
16 | CC(=O)OCC1=C(C(=O)O)N2C(=O)[C@@H](N)[C@@H]2SC1 | inconclusive [cytotoxic, full curve] | 
17 | COc1ccc2c(c1)[C@]13CCCCC1C(C2)N(C)CC3 (stereo not given in full) | inconclusive [cytotoxic, full curve] | 
18 | COc1cccc2c1[C@]13CCN(CC4CC4)[C@H](C2)[C@]1(OC)CCC(=O)C3 |  | inactive: 21.4%
19 | COc1cccc(C(=O)CCN[C@@H](C)[C@H](O)c2ccccc2)c1 | inconclusive [cytotoxic, single point] | 

assay: qHTS of pediatric cancer cell lines to identify multiple opportunities for drug repurposing: Primary screen for LAN-5 cells (AID 1347100); settings: LAN-5 neuroblastoma viability, CellTiter-Glo luminescence, 48 h; activity change, negative = cytotoxic: at 46 µM (top of the series) unless noted;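 for activity change, negative = cytotoxic: plate controls were DMSO neutral control for no effect and bortezomib positive control for full effect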
How it was run: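 Viability after 48 h compound treatment at 37C, 500-1,000 cells/well, read as ATP luminescence with CellTiter-Glo. Primary screens used 11-point (MIPE, 0.78 nM-46 µM) or 8-point (NPC, 0.59 nM-46 µM) final concentrations; follow-up screens used 11-point dilutions.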

Row | SMILES | activity change, negative = cytotoxic | Potency
20 | COc1ccccc1N1CCNCC1 | inactive: 13.3% | 
21 | CC(C)Oc1cccc(NC(=O)c2ccccc2C(F)(F)F)c1 |  | inconclusive [cytotoxic, partial curve, poor fit]
22 | O=C(O)C(=O)c1cn(Cc2ccccc2)c2ccc(-c3ccc(OC(F)(F)F)cc3)cc12 | inactive: 0.856% | 
23 | N#Cc1nn(-c2c(Cl)cc(C(F)(F)F)cc2Cl)c(N)c1S(=O)C(F)(F)F (stereo not given) |  | inconclusive [cytotoxic, single point]
24 | CC(C)CC(N(C)C)C1(c2ccc(Cl)cc2)CCC1 (stereo not given) |  | inactive
25 | CC(O)=C(C#N)C(=O)Nc1cc(Br)ccc1Br |  | inconclusive [cytotoxic, full curve]
26 | CC(C)=CC1C(C(=O)OCN2C(=O)C3=C(CCCC3)C2=O)C1(C)C (stereo not given) | inconclusive: -38.6% [cytotoxic] | 
27 | O=C(O)CNC(=O)c1c(O)c2ccccc2n(Cc2ccccc2)c1=O | inactive: 46.4% | 
28 | CCOP(=S)(OCC)Oc1ccc2c(C)c(Cl)c(=O)oc2c1 |  | inconclusive [cytotoxic, single point]
29 | CC[n+]1c(-c2ccccc2)c2cc(N)ccc2c2ccc(N)cc21 |  | active: 0.944 µM
30 | O=C1c2ccccc2C(=O)C1C(=O)C(c1ccccc1)c1ccccc1 |  | inconclusive [cytotoxic, single point]
31 | O=P1(NCCCl)OCCCN1CCCl (stereo not given) |  | inconclusive [cytotoxic, single point]
32 | CC(=O)OCC1=C(C(=O)O)N2C(=O)[C@@H](N)[C@@H]2SC1 |  | inconclusive [cytotoxic, full curve]
33 | Nc1ccc(N)cc1 |  | inconclusive [cytotoxic, single point]
34 | COc1cccc(C(=O)CCN[C@@H](C)[C@H](O)c2ccccc2)c1 |  | inconclusive [cytotoxic, single point]

assay: qHTS of pediatric cancer cell lines to identify multiple opportunities for drug repurposing: Primary screen for BT-12 cells (AID 1347101); settings: BT-12 viability, CellTiter-Glo luminescence, 48 h; series mostly up to 57.3 µM; activity change, negative = cytotoxic: at the top concentration; note: nearly all actives have a fitted effect of over 25% in size;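 for activity change, negative = cytotoxic: plate controls were DMSO for no effect and bortezomib positive control for full effect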
How it was run: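 Cells (500-1,000/well) rested 5 h, then received compounds for 48 h; metabolically active cells were measured by CellTiter-Glo luminescence. Final concentrations spanned up to 46 µM (MIPE, 11-point) or 0.59 nM-46 µM (NPC, 8-point) in primary screens, 11-point in follow-ups.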

Row | SMILES | Potency | activity change, negative = cytotoxic
35 | CC(C)Oc1cccc(NC(=O)c2ccccc2C(F)(F)F)c1 | inconclusive [cytotoxic, partial curve] | 
36 | C[C@]12C=CC(=O)C=C1CC[C@@H]1[C@@H]2CC[C@@]2(C)[C@H]1CC[C@]2(C)O |  | inactive: -19.6%
37 | CCc1c(C(=O)C(N)=O)c2c(OCC(=O)O)cccc2n1Cc1ccccc1 |  | inactive: 15.2%
38 | CC1=C2C[C@@H]3[C@@H](CC=C4C[C@@H](O)CC[C@@]43C)[C@@H]2CC[C@]12O[C@H]1C[C@H](C)CN[C@H]1[C@H]2C | inconclusive [cytotoxic, partial curve] | 
39 | c1ccc(CCCN2CCN(CCOC(c3ccccc3)c3ccccc3)CC2)cc1 | inconclusive [cytotoxic, partial curve, poor fit] | 
40 | CC(C)=CC1C(C(=O)OCN2C(=O)C3=C(CCCC3)C2=O)C1(C)C (stereo not given) | inconclusive [cytotoxic, partial curve, poor fit] | 
41 | COc1ccc(C(=O)c2c(C)n(CCN3CCOCC3)c3ccccc23)cc1 | inconclusive [cytotoxic, partial curve] | 
42 | C[C@]12CCC(=O)C=C1CC[C@@H]1[C@@H]2CC[C@@]2(C)[C@H]1CC[C@]2(C)O | inconclusive [cytotoxic, partial curve, poor fit] | 
43 | CC[n+]1c(-c2ccccc2)c2cc(N)ccc2c2ccc(N)cc21 | active: 3.09 µM | 
44 | O=C1c2ccccc2C(=O)C1C(=O)C(c1ccccc1)c1ccccc1 |  | inactive: -7.71%
45 | COc1ccc2c(c1)[C@]13CCCCC1C(C2)N(C)CC3 (stereo not given in full) |  | inactive: 2.18%
